Our source for the binding signal (RPM ratio (pull-down/input)) values is article PMC12820563.

The other results are listed elsewhere or left out. The list includes weakly bound sequences.

For this test, the target named is T1, MBP-FoxP3dN (UniProt Q99JB6).
T1 sequence: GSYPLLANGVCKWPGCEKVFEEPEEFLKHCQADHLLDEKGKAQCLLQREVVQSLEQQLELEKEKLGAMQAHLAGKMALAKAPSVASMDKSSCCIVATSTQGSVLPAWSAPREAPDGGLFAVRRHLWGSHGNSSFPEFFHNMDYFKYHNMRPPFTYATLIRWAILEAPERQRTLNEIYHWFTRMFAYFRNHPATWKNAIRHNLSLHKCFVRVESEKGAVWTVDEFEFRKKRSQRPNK
In words: PD-seq (MBP pull-down with sequencing). The conditions noted are these: 20 mM Tris-HCl pH 7.5, 100 mM NaCl, 1.5 mM MgCl2, 0.4 uM protein, 0.1 uM dsDNA library, 30 min, room temperature, amylose pull-down; high values mean tight binding; double strand, one strand shown.
“GATGATTGTTCTCCCAGCTGATGAATTCGCCTCTTCGAGTAAACAAATTTTCCTAATCTTTCTGTTCAAGCGCCATCTAC”: the binding signal (RPM ratio (pull-down/input)) was 2.14. Turning to “GATGATTGTTCTCCCAGCTGATGAATTCCTCAGCTCGAGTAAACAAATTTTCCTAATCTTTCTGTTCAAGCGCCATCTAC”, the binding signal (RPM ratio (pull-down/input)) was 0.211. The same measure for “GATGATTGTTCTCCCAGCTGATGAATTTACTCTCTCGAGTAAACAAATTTTCCTAATCTTTCTGTTCAAGCGCCATCTAC”: 0.467. Consider “GATGATTGTTCTCCCAGCTGATGAATTGTAGTCATCGAGTAAACAAATTTTCCTAATCTTTCTGTTCAAGCGCCATCTAC”, for which the binding signal (RPM ratio (pull-down/input)) was 1.06.

As for “GATGATTGTTCTCCCAGCTGATGAATTTGGGCAGTCGAGTAAACAAATTTTCCTAATCTTTCTGTTCAAGCGCCATCTAC”, the binding signal (RPM ratio (pull-down/input)) is 0.391.

In the case of “GATGATTGTTCTCCCAGCTGATGAATTGTGAACGTCGAGTAAACAAATTTTCCTAATCTTTCTGTTCAAGCGCCATCTAC”, the binding signal (RPM ratio (pull-down/input)) turned out to be 0.519. In the case of “GATGATTGTTCTCCCAGCTGATGAATTGTGTCTGTCGAGTAAACAAATTTTCCTAATCTTTCTGTTCAAGCGCCATCTAC” it was 1.48; in that of “GATGATTGTTCTCCCAGCTGATGAATTCGATGCCTCGAGTAAACAAATTTTCCTAATCTTTCTGTTCAAGCGCCATCTAC”, 2.03. The same measure for “GATGATTGTTCTCCCAGCTGATGAATTCGATTCCTCGAGTAAACAAATTTTCCTAATCTTTCTGTTCAAGCGCCATCTAC”: 1.22. On to “GATGATTGTTCTCCCAGCTGATGAATTCGGGTAATCGAGTAAACAAATTTTCCTAATCTTTCTGTTCAAGCGCCATCTAC”, for which the binding signal (RPM ratio (pull-down/input)) worked out at 0.457. In the case of “GATGATTGTTCTCCCAGCTGATGAATTTACGCCGTCGAGTAAACAAATTTTCCTAATCTTTCTGTTCAAGCGCCATCTAC” it was 0.747. In the case of “GATGATTGTTCTCCCAGCTGATGAATTTGACTGGTCGAGTAAACAAATTTTCCTAATCTTTCTGTTCAAGCGCCATCTAC” it was 0.479; in that of “GATGATTGTTCTCCCAGCTGATGAATTAGAGCAGTCGAGTAAACAAATTTTCCTAATCTTTCTGTTCAAGCGCCATCTAC”, 0.36; in that of “GATGATTGTTCTCCCAGCTGATGAATTTGATCAATCGAGTAAACAAATTTTCCTAATCTTTCTGTTCAAGCGCCATCTAC”, 0.294. Regarding “GATGATTGTTCTCCCAGCTGATGAATTGTGACGTTCGAGTAAACAAATTTTCCTAATCTTTCTGTTCAAGCGCCATCTAC”, the binding signal (RPM ratio (pull-down/input)) came to 1.06. The same measure for “GATGATTGTTCTCCCAGCTGATGAATTCCATACGTCGAGTAAACAAATTTTCCTAATCTTTCTGTTCAAGCGCCATCTAC”: 0.394. With “GATGATTGTTCTCCCAGCTGATGAATTCTCTGGTTCGAGTAAACAAATTTTCCTAATCTTTCTGTTCAAGCGCCATCTAC”, the binding signal (RPM ratio (pull-down/input)) amounted to 0.215. As to “GATGATTGTTCTCCCAGCTGATGAATTCTGCCCTTCGAGTAAACAAATTTTCCTAATCTTTCTGTTCAAGCGCCATCTAC”, the binding signal (RPM ratio (pull-down/input)) worked out at 1.13. In the case of “GATGATTGTTCTCCCAGCTGATGAATTCTTGGAATCGAGTAAACAAATTTTCCTAATCTTTCTGTTCAAGCGCCATCTAC” it was 0.177. Consider “GATGATTGTTCTCCCAGCTGATGAATTGAGCCTATCGAGTAAACAAATTTTCCTAATCTTTCTGTTCAAGCGCCATCTAC”, for which the binding signal (RPM ratio (pull-down/input)) amounted to 1.63. Consider “GATGATTGTTCTCCCAGCTGATGAATTTTTCTCCTCGAGTAAACAAATTTTCCTAATCTTTCTGTTCAAGCGCCATCTAC”, for which the binding signal (RPM ratio (pull-down/input)) was determined as 0.188. In the case of “GATGATTGTTCTCCCAGCTGATGAATTCTTGAATTCGAGTAAACAAATTTTCCTAATCTTTCTGTTCAAGCGCCATCTAC” it was 0.493; in that of “GATGATTGTTCTCCCAGCTGATGAATTGTGTCCATCGAGTAAACAAATTTTCCTAATCTTTCTGTTCAAGCGCCATCTAC”, 1.29. In the case of “GATGATTGTTCTCCCAGCTGATGAATTTATCTCATCGAGTAAACAAATTTTCCTAATCTTTCTGTTCAAGCGCCATCTAC”, the binding signal (RPM ratio (pull-down/input)) came out at 0.69. “GATGATTGTTCTCCCAGCTGATGAATTACTCTGTTCGAGTAAACAAATTTTCCTAATCTTTCTGTTCAAGCGCCATCTAC”: the binding signal (RPM ratio (pull-down/input)) was found to be 0.315. Regarding “GATGATTGTTCTCCCAGCTGATGAATTCTCCCAATCGAGTAAACAAATTTTCCTAATCTTTCTGTTCAAGCGCCATCTAC”, the binding signal (RPM ratio (pull-down/input)) came to 0.232. In the case of “GATGATTGTTCTCCCAGCTGATGAATTGTGTTTCTCGAGTAAACAAATTTTCCTAATCTTTCTGTTCAAGCGCCATCTAC” it was 4.32. In the case of “GATGATTGTTCTCCCAGCTGATGAATTGGAGTCCTCGAGTAAACAAATTTTCCTAATCTTTCTGTTCAAGCGCCATCTAC” it was 0.398; in that of “GATGATTGTTCTCCCAGCTGATGAATTACGTCCATCGAGTAAACAAATTTTCCTAATCTTTCTGTTCAAGCGCCATCTAC”, 0.517; in that of “GATGATTGTTCTCCCAGCTGATGAATTATTAAAGTCGAGTAAACAAATTTTCCTAATCTTTCTGTTCAAGCGCCATCTAC”, 0.243. In the case of “GATGATTGTTCTCCCAGCTGATGAATTAAACAACTCGAGTAAACAAATTTTCCTAATCTTTCTGTTCAAGCGCCATCTAC” it was 1.08; in that of “GATGATTGTTCTCCCAGCTGATGAATTCGATTAATCGAGTAAACAAATTTTCCTAATCTTTCTGTTCAAGCGCCATCTAC”, 0.397.

“GATGATTGTTCTCCCAGCTGATGAATTTAACCTTTCGAGTAAACAAATTTTCCTAATCTTTCTGTTCAAGCGCCATCTAC”: the binding signal (RPM ratio (pull-down/input)) stood at 0.311. The same measure for “GATGATTGTTCTCCCAGCTGATGAATTCGGGGCTTCGAGTAAACAAATTTTCCTAATCTTTCTGTTCAAGCGCCATCTAC”: 0.379; for “GATGATTGTTCTCCCAGCTGATGAATTGCAAGTATCGAGTAAACAAATTTTCCTAATCTTTCTGTTCAAGCGCCATCTAC”: 1.12; for “GATGATTGTTCTCCCAGCTGATGAATTTCCCACCTCGAGTAAACAAATTTTCCTAATCTTTCTGTTCAAGCGCCATCTAC”: 0.238. In the case of “GATGATTGTTCTCCCAGCTGATGAATTCGTACGGTCGAGTAAACAAATTTTCCTAATCTTTCTGTTCAAGCGCCATCTAC” it was 0.369. With “GATGATTGTTCTCCCAGCTGATGAATTTACAACTTCGAGTAAACAAATTTTCCTAATCTTTCTGTTCAAGCGCCATCTAC”, the binding signal (RPM ratio (pull-down/input)) was 0.617.

Turning to “GATGATTGTTCTCCCAGCTGATGAATTAGCGGGGTCGAGTAAACAAATTTTCCTAATCTTTCTGTTCAAGCGCCATCTAC”, the binding signal (RPM ratio (pull-down/input)) was determined as 0.388. Take “GATGATTGTTCTCCCAGCTGATGAATTGAGACAATCGAGTAAACAAATTTTCCTAATCTTTCTGTTCAAGCGCCATCTAC”: the binding signal (RPM ratio (pull-down/input)) was found to be 0.509. In the case of “GATGATTGTTCTCCCAGCTGATGAATTAACAATCTCGAGTAAACAAATTTTCCTAATCTTTCTGTTCAAGCGCCATCTAC” it was 0.562; in that of “GATGATTGTTCTCCCAGCTGATGAATTGGAGCGTTCGAGTAAACAAATTTTCCTAATCTTTCTGTTCAAGCGCCATCTAC”, 0.97. “GATGATTGTTCTCCCAGCTGATGAATTCGCTTAGTCGAGTAAACAAATTTTCCTAATCTTTCTGTTCAAGCGCCATCTAC”: the binding signal (RPM ratio (pull-down/input)) was determined as 0.978. The same measure for “GATGATTGTTCTCCCAGCTGATGAATTTCCGGCTTCGAGTAAACAAATTTTCCTAATCTTTCTGTTCAAGCGCCATCTAC”: 0.252. In the case of “GATGATTGTTCTCCCAGCTGATGAATTAGATCGCTCGAGTAAACAAATTTTCCTAATCTTTCTGTTCAAGCGCCATCTAC” it was 0.31; in that of “GATGATTGTTCTCCCAGCTGATGAATTGAAGTTCTCGAGTAAACAAATTTTCCTAATCTTTCTGTTCAAGCGCCATCTAC”, 0.457. Regarding “GATGATTGTTCTCCCAGCTGATGAATTTTCCCAATCGAGTAAACAAATTTTCCTAATCTTTCTGTTCAAGCGCCATCTAC”, the binding signal (RPM ratio (pull-down/input)) was found to be 0.285.

Turning to “GATGATTGTTCTCCCAGCTGATGAATTATTTACGTCGAGTAAACAAATTTTCCTAATCTTTCTGTTCAAGCGCCATCTAC”, the binding signal (RPM ratio (pull-down/input)) was determined as 3.11. Turning to “GATGATTGTTCTCCCAGCTGATGAATTTACCCACTCGAGTAAACAAATTTTCCTAATCTTTCTGTTCAAGCGCCATCTAC”, the binding signal (RPM ratio (pull-down/input)) came out at 0.435.

For “GATGATTGTTCTCCCAGCTGATGAATTATAATTTTCGAGTAAACAAATTTTCCTAATCTTTCTGTTCAAGCGCCATCTAC”, the binding signal (RPM ratio (pull-down/input)) is 0.583. The same measure for “GATGATTGTTCTCCCAGCTGATGAATTTGGTATGTCGAGTAAACAAATTTTCCTAATCTTTCTGTTCAAGCGCCATCTAC”: 2.99; for “GATGATTGTTCTCCCAGCTGATGAATTTACGTCTTCGAGTAAACAAATTTTCCTAATCTTTCTGTTCAAGCGCCATCTAC”: 0.682.

With “GATGATTGTTCTCCCAGCTGATGAATTAGTCTGGTCGAGTAAACAAATTTTCCTAATCTTTCTGTTCAAGCGCCATCTAC”, the binding signal (RPM ratio (pull-down/input)) is 0.491.

“GATGATTGTTCTCCCAGCTGATGAATTCAAACAGTCGAGTAAACAAATTTTCCTAATCTTTCTGTTCAAGCGCCATCTAC”: the binding signal (RPM ratio (pull-down/input)) turned out to be 0.589. The same measure for “GATGATTGTTCTCCCAGCTGATGAATTGATTATGTCGAGTAAACAAATTTTCCTAATCTTTCTGTTCAAGCGCCATCTAC”: 1.86. In the case of “GATGATTGTTCTCCCAGCTGATGAATTCCGATGGTCGAGTAAACAAATTTTCCTAATCTTTCTGTTCAAGCGCCATCTAC” it was 0.581; in that of “GATGATTGTTCTCCCAGCTGATGAATTCCTTCTGTCGAGTAAACAAATTTTCCTAATCTTTCTGTTCAAGCGCCATCTAC”, 0.214. In the case of “GATGATTGTTCTCCCAGCTGATGAATTCGTCATATCGAGTAAACAAATTTTCCTAATCTTTCTGTTCAAGCGCCATCTAC” it was 1.02. “GATGATTGTTCTCCCAGCTGATGAATTGCGATTGTCGAGTAAACAAATTTTCCTAATCTTTCTGTTCAAGCGCCATCTAC”: the binding signal (RPM ratio (pull-down/input)) was determined as 2.85.

Regarding “GATGATTGTTCTCCCAGCTGATGAATTATCACCCTCGAGTAAACAAATTTTCCTAATCTTTCTGTTCAAGCGCCATCTAC”, the binding signal (RPM ratio (pull-down/input)) amounted to 0.367. In the case of “GATGATTGTTCTCCCAGCTGATGAATTCACCCGATCGAGTAAACAAATTTTCCTAATCTTTCTGTTCAAGCGCCATCTAC”, the binding signal (RPM ratio (pull-down/input)) was found to be 0.2. The same measure for “GATGATTGTTCTCCCAGCTGATGAATTTCTCCTATCGAGTAAACAAATTTTCCTAATCTTTCTGTTCAAGCGCCATCTAC”: 0.264; for “GATGATTGTTCTCCCAGCTGATGAATTGATCTTATCGAGTAAACAAATTTTCCTAATCTTTCTGTTCAAGCGCCATCTAC”: 0.343.
